From PubChem BioAssay AID463173 (ICCB-Longwood Screening Facility, Harvard Medical School, 2010) come the findings set out here.

Hit rate of the full screen: of about 52,000 compounds, about 4,300 (8.3%) were called active. Cut-off read from the data, not from the text of the source: active = survival mostly below about 52% (no sharp cut-off); inactive = mostly above about 56%. Some of the results follow.

The test concerns DeltatarO mutant. Description: growth inhibition of S. aureus wild type versus tarO mutant, primary screen, teichoic acid synthesis inhibitors, RN4220, OD600 (AID 463173). Particulars: OD600, 18 h, active compounds read low, screened at 18.75 µg/mL (by protocol).
`CCCCCCOc1ccc(C2C(=O)N(C3CCCCC3)CC(=O)N2CCCC)cc1` (centres undefined): the survival is inactive: 103%. The figure for `CCOc1cccc(C(=O)Nc2cc(-c3ccc(C)cc3)no2)c1` is inactive: 70%; for `CN(C)c1ccc(CNC(=O)CCS(=O)(=O)c2ccc3c(c2)oc(=O)n3C)cc1` it is inactive: 82%; for `CCCCN1C(C(=O)c2ccccc2)=C(OC(C)=O)c2ccccc2S1(=O)=O` it is active: -4%. The figure for `Cc1noc(Cn2c(=O)c3cc4c(cc3n(CC(=O)Nc3ccccc3Br)c2=O)OCO4)n1` is inactive: 117%. For `COc1ccc(NC(=O)CNC(=O)Cn2c(C)cc3ccccc3c2=O)cc1OC` the value was inactive: 62%. As to `CCCn1c(N2CCN(C(=O)N3CCCCC3)CC2)nc2ccccc21`, the survival is inactive: 99%. For `COc1ccc(C)cc1N(C)C(=O)c1c2c(nc3ccccc13)C(=O)N(C1CCCCC1)C2` the value was inactive: 70%; for `CC(C)N(Cc1ccccc1)S(=O)(=O)c1ccc(F)cc1`, inactive: 96%; for `COc1ccc(CNS(=O)(=O)c2ccc(-c3cnc(C4CC4)o3)cc2)cc1`, inactive: 83%. For `CCOc1ccc(N(CC)S(=O)(=O)N2CCCC(C(=O)Nc3cc(Cl)ccc3OC)C2)cc1` (centres undefined) the value was inactive: 83%; for `COc1ccc(Nc2ncc(C(=O)N3CCN(c4ccc(F)cc4)CC3)c3ccccc23)cc1`, inactive: 64%. For `CCOc1ccc(NCc2cccn2-c2nnc(N3CCC(C(=O)NCCOC)CC3)s2)cc1` the value was inactive: 67%; for `C=C(C)Cn1c(=O)c2c(nc3n2CCN3c2ccc(F)cc2)n(C)c1=O`, inactive: 86%; for `Cc1cc(=O)n2nc(N3CCC(C(=O)NCc4ccc(F)cc4)CC3)sc2n1`, inactive: 95%. `Cc1ccccc1Nc1cc(C(=O)NCc2cccs2)c2ccccc2n1`: the survival is inactive: 84%.

For `CCOc1ccc(Cn2c(CNS(=O)(=O)c3cccc(Cl)c3)nc3cccnc32)cc1`, the survival is inactive: 94%. For `CCc1ccc(NC(=O)CSc2nc3c(sc4ccccc43)c(=O)n2CCCOC(C)C)cc1` the value was inactive: 73%; for `COc1ccccc1C(=O)N1CCN(Cc2cc(=O)oc3cc(C)ccc23)CC1`, active: 38%. In the case of `Cc1ccc(NCc2nnc(SCc3nc4ccccc4c(=O)[nH]3)n2Cc2ccco2)c(C)c1`, the survival is inactive: 75%. As for `COc1ccc(-c2nc3ccc(NS(=O)(=O)c4ccc(Cl)cc4)cc3o2)cc1`, the survival was active: 23%. The figure for `Cc1ccc(CNC(=O)c2ccc(CSCc3ccccc3C)o2)cc1` is inactive: 70%. For `COc1ccc(-c2nc3scc(CCNS(=O)(=O)c4ccc(NC(C)=O)cc4)n3n2)cc1` the value was inactive: 79%. For the molecule `O=S(=O)(NC1CC1)c1ccc(S(=O)(=O)N(Cc2ccccn2)C2CC2)cc1`, the survival was inactive: 91%. The figure for `CCOC(=O)c1ccc(NC2SC(=O)N(Cc3cccc(C(=O)O)c3)C2=O)cc1` (centres undefined) is inactive: 60%; for `COc1cc2nc(SCC(=O)Nc3ccccc3F)n3nc(-c4ccccc4)nc3c2cc1OC` it is inactive: 65%; for `CCC(C)NC(=O)c1cccc(NC(=O)c2nsc3ccccc23)c1` (centres undefined) it is inactive: 74%.

For the molecule `COc1ccccc1NC(=O)CSC1=Nc2ccccc2C2=NC(CCC(=O)NCc3cccs3)C(=O)N12` (centres undefined), the survival was inactive: 79%. Take `COc1ccc(-n2cc(C(=O)NCc3ccccc3Cl)c3ccccc3c2=O)cc1`: the survival was inactive: 108%. The figure for `CCCc1cc(-c2ccc(O)c(OCC)c2)c(C#N)c(N)n1` is inactive: 66%. Take `CCCCN(CC)C(=O)Cn1ncc2c3ccccc3n(CCC)c2c1=O`: the survival is inactive: 77%.

Turning to `CCOc1cccc(C(=O)N(Cc2ccc(CC)cc2)C2CCS(=O)(=O)C2)c1` (centres undefined), the survival is inactive: 149%. For `CCCNC(=O)Cn1nc(-c2ccc(F)cc2)c2cnc3ccc(F)cc3c21` the value was inactive: 83%; for `COc1ccc(C)cc1NC(=O)Cn1c(=O)ccc2cc(S(=O)(=O)N3CCC(C)CC3)ccc21`, inactive: 95%; for `CCOc1ccc(CCNC(=O)c2ccc(CS(=O)Cc3cccc(Cl)c3)o2)cc1` (centres undefined), inactive: 50%. The figure for `COC(=O)c1ccc(NC(=O)CSc2ncc3c(n2)-c2cc(Cl)ccc2N(Cc2ccccc2)S3(=O)=O)cc1` is inactive: 58%; for `COc1ccc(NC(=O)c2c(NCc3sccc3C)sc3c2CCCCC3)c(OC)c1` it is inactive: 85%. For `Cc1ccc2c(=O)c(C(=O)c3ccc(Cl)cc3)cn(CC(=O)NC3CCCCC3)c2n1` the value was inactive: 71%.

As for `O=S(=O)(c1ccc(F)cc1)N(Cc1nc(-c2ccc(Cl)cc2)no1)C1CCCCC1`, the survival is inactive: 76%. For `Cc1ccccc1-c1nnc(SCC(=O)c2ccccc2)o1` the value was inactive: 98%. `Cc1ccc(C)c(OCC(=O)Nc2ccc(S(=O)(=O)Nc3onc(C)c3C)cc2)c1C`: the survival was inactive: 165%.

Turning to `CCC(C(=O)Nc1ccccc1OC)n1nc(C)c2sc3ccccc3c2c1=O` (centres undefined), the survival is inactive: 75%. With `COc1cccc(-n2c(C)c3c(OC)cccc(=O)c3c2C)c1`, the survival was inactive: 93%. Turning to `CC(Sc1cn(CCNC(=O)c2ccccc2F)c2ccccc12)c1ccccc1` (centres undefined), the survival is active: 42%. For `Cc1ccc(NC(=O)c2c(C)oc3nc(C)nc(N4CCCC4)c23)c(C)c1` the value was inactive: 70%.

In the case of `CCN(CCCNC(=O)CSc1cc(=O)n(CC)c2ccccc12)c1cccc(C)c1`, the survival is active: 38%. For `Cc1c(Cl)cccc1NC(=O)Nc1nnc(N(C)Cc2ccccc2)s1` the value was inactive: 71%; for `Cc1c(NC(=O)C(C)(C)Oc2ccc(Cl)cc2)cccc1-c1nc2ncccc2o1`, active: 19%; for `CC1=C(C(=O)NCc2ccccc2C)C2(CCCCC2)OC1=O`, inactive: 74%. Regarding `CC(=O)c1ccc(NC(=O)Cn2cc(S(=O)(=O)Cc3ccccc3Cl)c3ccccc32)cc1`, the survival is inactive: 74%. For the molecule `c1ccc(C(c2ccccc2)N2CCN(Cc3nnnn3Cc3ccc4c(c3)OCO4)CC2)cc1`, the survival is inactive: 73%. The figure for `Cc1cc(N2CCCC2)c2ccccc2n1` is inactive: 96%; for `COc1ccc(Br)cc1C(=O)Nc1ccc(-c2nc3cc(Cl)ccc3o2)cc1` it is active: 43%; for `Cc1cc(C)c(C(N)=O)c(=S)[nH]1` it is inactive: 99%. The figure for `O=C(CCS(=O)(=O)c1cc(Br)cc2c1N(C(=O)C1CC1)CC2)NCc1ccccc1Cl` is inactive: 100%. As to `COc1ccc2c(c1)c(=O)c(S(=O)(=O)c1ccc(C)cc1)cn2Cc1ccccc1C`, the survival is inactive: 60%. Consider `CCC(C(=O)Nc1cc(F)ccc1F)n1nc(-c2cc(C)ccc2C)ccc1=O` (centres undefined), for which the survival is active: 38%. As for `CCOC(=O)N1CCc2c(sc3c2c(=O)n(Cc2ccccc2)c(=O)n3CC(=O)Nc2ccc(C)c(C)c2)C1`, the survival is inactive: 71%. The figure for `Cc1ccc(NC(=O)CCC(=O)N2CCSc3ccccc32)cc1Cl` is inactive: 63%; for `COC(=O)C(C)n1nnc2sc(-c3ccccc3)cc2c1=O` (centres undefined) it is inactive: 80%.

Consider `C(#Cc1ccccc1)CN1CCCCC1`, for which the survival was inactive: 107%. The figure for `CCOc1ccc(NC(=O)CN2C(=O)COc3ccc(S(=O)(=O)NC4CCCC4)cc32)cc1` is inactive: 73%; for `O=C(Nc1ccc(F)cc1F)c1ccc2c(O)c(S(=O)(=O)c3ccc(Cl)cc3)c(=O)[nH]c2c1` it is inactive: 74%.

Regarding `O=C(/C=N/O)NCCN1CCCCC1`, the survival was inactive: 98%.

Regarding `CCc1ccc(C2c3c(oc4ccc(F)cc4c3=O)C(=O)N2c2nc(C)c(C(=O)OC)s2)cc1` (centres undefined), the survival is inactive: 77%. On to `CCN(CC)c1nc(C(F)(F)F)nc2c1nnn2Cc1ccccc1`, for which the survival was inactive: 83%.

Consider `O=C(N/N=C/c1ccncc1)c1ccccc1`, for which the survival was inactive: 79%. `COc1ccc(N(CC(=O)Nc2cc(C)ccc2C)S(=O)(=O)c2ccc(OC)c(OC)c2)cc1`: the survival is inactive: 157%. In the case of `CC(C)=NNC(=O)CNc1ccccc1Cl`, the survival was inactive: 79%. For `COc1ccccc1OCC(=O)NCc1nc(-c2ccc(Cl)cc2)no1` the value was inactive: 52%. For `CCOc1ccc(C(=O)Nc2ccc(S(=O)(=O)Nc3nc(C)cc(C)n3)cc2)cc1OC` the value was inactive: 84%. In the case of `Cc1ccccc1Cc1c(C)nc2nc(SCC(=O)NCCc3ccc(Cl)cc3)nn2c1C`, the survival was inactive: 67%. `CC1=C(c2ccc(C)c(C)c2)S(=O)(=O)N(Cc2ccc(C(=O)NC(C)c3ccccc3)cc2)C1=O` (centres undefined): the survival was inactive: 83%.

With `O=C(COCc1cc(-c2ccc3c(c2)OCO3)on1)NCc1ccccc1Cl`, the survival was inactive: 70%. For `Cc1nc2scc(C)n2c(=O)c1S(=O)(=O)N1CCN(c2cccc(C(F)(F)F)c2)CC1` the value was inactive: 64%; for `CN(C)c1ccc(NC(=O)Cn2cc(S(=O)(=O)Cc3cccc(Cl)c3)c3ccccc32)cc1`, inactive: 67%. For `Cc1cccc(N(C)c2ccc3cc(S(=O)(=O)N4CCCC4)ccc3n2)c1` the value was inactive: 96%. For `Cc1ccc2c(c1)c(N1CCCC1=O)c(C(=O)Nc1ccc(F)cc1F)n2C`, the survival is inactive: 71%. With `CCC(=O)N1CCc2cc(S(=O)(=O)NC(Cc3ccccc3)C(=O)Nc3cccc(OC)c3)ccc21` (centres undefined), the survival was inactive: 84%. With `Cc1ccc(C)c(NC(=O)CSC2=Nc3ccccc3N=C(c3ccc(F)cc3)C2)c1`, the survival is inactive: 88%. In the case of `CCOC(=O)c1cc(S(=O)(=O)N2CCN(c3ccc(C)cc3C)CC2)[nH]n1`, the survival is inactive: 82%. For `Cc1ccc(-c2nnc3c4ccccc4c(C)nn23)cc1NC(=O)c1ccccc1Cl` the value was inactive: 93%; for `Cc1ccc(S(=O)(=O)c2nnn3c2nc(N2CCCC2)c2sccc23)cc1`, inactive: 113%; for `COc1cccc(N2CCN(c3ncnc4onc(-c5ccc(F)cc5)c34)CC2)c1`, inactive: 83%. For `O=C(C1CCCN(S(=O)(=O)c2cccc3nsnc23)C1)N1CCN(c2ccccc2Cl)CC1` (centres undefined) the value was inactive: 107%. The figure for `O=C(CCCCCn1c(=O)[nH]c2ccccc2c1=O)NCc1ccccc1` is inactive: 75%; for `CC1CCN(C(=O)c2ccc(N3C(=O)c4ccccc4C3=O)cc2)CC1` it is inactive: 77%; for `O=C(COC(=O)C1CC(=O)N(Cc2ccco2)C1)c1ccc(OC(=O)c2ccco2)cc1` (centres undefined) it is inactive: 97%.

For `CS(=O)(=O)N1CCc2cc(C(=O)N3CCN(c4ccccc4)CC3)ccc21`, the survival was inactive: 47%.
